Experimental data published in PubChem BioAssay (Tox21).
Where “and” joins values, the source holds several entries; their conditions need not be identical. Equal entries are not always repeated. Inconclusive results, whose numbers are uncertain, are shown with a selection of clear calls. For some assays here: A potency beside an inconclusive call is a rough fit, not a confirmed value. More than one record can exist for a structure, and the calls need not agree. Calls of active or inactive are those of the source. Calls follow the shape of the dose curve; as a rule, active = well fitted curve in the direction sought with a large enough effect in the repeat runs; inconclusive = weak or mixed curves; inactive = no such curve, though single readings can be large; an effect the other way counts as inactive or inconclusive.

Key:
[1] = Human pregnane X receptor (PXR) small molecule agonists, qHTS cell viability counter screen (AID 1346977); details: PXR-Luc HepG2 viability, CellTiter-Fluor, 24 h; series mostly up to 92.4 µM; also: nearly all actives have a fitted effect of over 50% in size; also: potency is read from the fitted curve at half-maximal effect; as to activity change, negative = cytotoxicity: % is scaled to controls: 0 for no effect and ±100 for the full control effect
Procedure, shortened: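 Cytotoxicity counter screen run in the same wells as the PXR luciferase assay, using PXR-Luc HepG2 cells in charcoal-stripped serum medium. Viability: CellTiter-Fluor fluorescence after 24hr compound treatment.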

[2] = molecular target: Cytochrome P450 2C19 (Homo sapiens) (UniProt P33261); experiment: Cytochrome P450 Family 2 Subfamily C Member 19 (CYP2C19) small molecule antagonists: luciferase reporter qHTS assay (AID 1671197); details: P450-Glo CYP2C19 enzyme, luciferin luminescence, 1 h; series mostly up to 115 µM; also: nearly all actives have a fitted effect of over 65% in size; also: potency is read from the fitted curve at half-maximal effect; as to activity change, negative = inhibition: % is scaled to controls: 0 for no effect and ±100 for the full control effect
Sequence of UniProt P33261 (P33261 whole entry, looked up): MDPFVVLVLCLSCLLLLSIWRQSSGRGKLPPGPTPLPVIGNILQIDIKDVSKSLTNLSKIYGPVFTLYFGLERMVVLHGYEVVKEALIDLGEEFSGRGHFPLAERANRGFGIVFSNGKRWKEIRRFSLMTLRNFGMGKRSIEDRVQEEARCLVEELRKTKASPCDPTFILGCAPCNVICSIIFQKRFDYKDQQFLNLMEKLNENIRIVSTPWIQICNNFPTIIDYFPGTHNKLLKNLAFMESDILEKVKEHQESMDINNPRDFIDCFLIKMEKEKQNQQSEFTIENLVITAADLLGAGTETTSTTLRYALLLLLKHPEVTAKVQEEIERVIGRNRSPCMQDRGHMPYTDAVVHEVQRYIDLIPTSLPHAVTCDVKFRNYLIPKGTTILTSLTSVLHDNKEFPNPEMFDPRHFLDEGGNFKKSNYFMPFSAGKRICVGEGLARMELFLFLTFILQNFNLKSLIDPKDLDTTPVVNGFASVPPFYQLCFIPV
Procedure, shortened: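 First, compounds are pinned into enzyme-substrate mix and held 10 min at room temperature. Second, NADPH regeneration solution is added and plates incubate 1 h at 37C. Third, detection reagent is added and luminescence read after 20 min.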

[3] = molecular target: Cytochrome P450 2C9 (Homo sapiens) (UniProt P11712); experiment: Cytochrome P450 Family 2 Subfamily C Member 9 (CYP2C9) small molecule antagonists: luciferase reporter qHTS assay (AID 1671198); details: P450-Glo CYP2C9 enzyme assay, luciferin luminescence; series mostly up to 115 µM; also: nearly all actives have a fitted effect of over 50% in size; also: potency is read from the fitted curve at half-maximal effect; as to activity change, negative = inhibition: % is scaled to controls: 0 for no effect and ±100 for the full control effect
Sequence of UniProt P11712 (P11712 whole entry, looked up): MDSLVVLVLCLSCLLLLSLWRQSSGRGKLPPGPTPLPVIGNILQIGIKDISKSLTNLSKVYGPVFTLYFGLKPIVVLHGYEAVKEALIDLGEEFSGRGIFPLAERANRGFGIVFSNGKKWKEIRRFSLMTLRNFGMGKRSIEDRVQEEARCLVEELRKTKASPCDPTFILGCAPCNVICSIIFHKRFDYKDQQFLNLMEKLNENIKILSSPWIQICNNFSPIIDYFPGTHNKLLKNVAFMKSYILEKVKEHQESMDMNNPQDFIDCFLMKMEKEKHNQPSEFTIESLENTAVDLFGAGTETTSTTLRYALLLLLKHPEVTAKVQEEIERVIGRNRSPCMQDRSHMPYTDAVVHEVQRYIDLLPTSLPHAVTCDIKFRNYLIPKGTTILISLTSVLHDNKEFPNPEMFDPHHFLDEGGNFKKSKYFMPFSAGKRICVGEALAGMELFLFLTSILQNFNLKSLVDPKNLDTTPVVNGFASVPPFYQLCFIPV
Procedure, shortened: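 CYP2C9 activity was measured with a P450-Glo proluciferin substrate. Enzyme–substrate mix was held with compound for 10 min at room temperature, then NADPH regeneration solution was added for 1 h at 37C. Luciferin product was read as luminescence.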

[4] = molecular target: Voltage-gated inwardly rectifying potassium channel KCNH2 (Homo sapiens) (UniProt Q12809); experiment: Human Ether-a-go-go-Related Gene (hERG) channel small molecule antagonists: fluorescence cell-based qHTS assay (AID 1671200); details: hERG-U2OS cells, FluxOR thallium flux fluorescence; series mostly up to 76.8 µM; also: potency is read from the fitted curve at half-maximal effect; nearly all actives have a fitted effect of over 50% in size
Sequence of UniProt Q12809 (Q12809 whole entry, looked up): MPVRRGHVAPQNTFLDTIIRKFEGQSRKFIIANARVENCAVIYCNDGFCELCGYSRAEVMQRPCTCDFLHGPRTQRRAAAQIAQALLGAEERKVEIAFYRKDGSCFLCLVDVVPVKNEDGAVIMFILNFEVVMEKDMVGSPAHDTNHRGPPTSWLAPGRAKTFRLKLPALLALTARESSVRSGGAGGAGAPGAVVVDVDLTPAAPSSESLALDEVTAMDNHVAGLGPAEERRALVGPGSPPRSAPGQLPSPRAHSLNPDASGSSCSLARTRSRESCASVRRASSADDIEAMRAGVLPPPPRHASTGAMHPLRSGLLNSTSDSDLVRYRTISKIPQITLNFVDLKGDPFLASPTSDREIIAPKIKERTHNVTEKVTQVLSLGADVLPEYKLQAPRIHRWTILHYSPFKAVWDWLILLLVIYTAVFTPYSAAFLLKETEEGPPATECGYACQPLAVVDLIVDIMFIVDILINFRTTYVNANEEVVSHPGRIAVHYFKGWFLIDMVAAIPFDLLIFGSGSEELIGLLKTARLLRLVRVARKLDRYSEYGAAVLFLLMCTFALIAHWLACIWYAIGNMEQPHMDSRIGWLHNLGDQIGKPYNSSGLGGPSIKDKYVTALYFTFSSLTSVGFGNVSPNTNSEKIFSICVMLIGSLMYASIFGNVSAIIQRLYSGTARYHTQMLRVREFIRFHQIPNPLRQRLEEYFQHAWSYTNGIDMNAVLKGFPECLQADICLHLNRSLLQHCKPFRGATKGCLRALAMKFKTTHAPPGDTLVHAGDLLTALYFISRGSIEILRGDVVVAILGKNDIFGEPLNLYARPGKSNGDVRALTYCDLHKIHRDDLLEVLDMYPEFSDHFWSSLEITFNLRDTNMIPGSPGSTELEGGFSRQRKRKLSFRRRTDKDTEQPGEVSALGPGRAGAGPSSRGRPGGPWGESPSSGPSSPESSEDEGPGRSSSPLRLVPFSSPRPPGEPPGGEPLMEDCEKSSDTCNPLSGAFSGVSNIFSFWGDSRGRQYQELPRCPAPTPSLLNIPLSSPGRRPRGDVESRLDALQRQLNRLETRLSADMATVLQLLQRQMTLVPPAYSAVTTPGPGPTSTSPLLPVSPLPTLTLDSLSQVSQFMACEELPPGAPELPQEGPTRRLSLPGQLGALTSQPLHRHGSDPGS
Procedure, shortened: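 Fluorescence at 540 nm emission (480 nm excitation) was recorded kinetically for 2 min at 1-second intervals once the thallium-containing stimulus reached cells previously loaded with FluxOR II dye.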

[5] = molecular target: Cytochrome P450 1A2 (Homo sapiens) (UniProt P05177); experiment: Cytochrome P450 Family 1 Subfamily A Member 2 (CYP1A2) small molecule antagonists: luciferase reporter qHTS assay (AID 1671199); details: P450-Glo CYP1A2 enzyme, luciferin luminescence, 1 h; series mostly up to 115 µM; also: nearly all actives have a fitted effect of over 50% in size; also: potency is read from the fitted curve at half-maximal effect; as to activity change, negative = inhibition: % is scaled to controls: 0 for no effect and ±100 for the full control effect
Sequence of UniProt P05177 (P05177 whole entry, looked up): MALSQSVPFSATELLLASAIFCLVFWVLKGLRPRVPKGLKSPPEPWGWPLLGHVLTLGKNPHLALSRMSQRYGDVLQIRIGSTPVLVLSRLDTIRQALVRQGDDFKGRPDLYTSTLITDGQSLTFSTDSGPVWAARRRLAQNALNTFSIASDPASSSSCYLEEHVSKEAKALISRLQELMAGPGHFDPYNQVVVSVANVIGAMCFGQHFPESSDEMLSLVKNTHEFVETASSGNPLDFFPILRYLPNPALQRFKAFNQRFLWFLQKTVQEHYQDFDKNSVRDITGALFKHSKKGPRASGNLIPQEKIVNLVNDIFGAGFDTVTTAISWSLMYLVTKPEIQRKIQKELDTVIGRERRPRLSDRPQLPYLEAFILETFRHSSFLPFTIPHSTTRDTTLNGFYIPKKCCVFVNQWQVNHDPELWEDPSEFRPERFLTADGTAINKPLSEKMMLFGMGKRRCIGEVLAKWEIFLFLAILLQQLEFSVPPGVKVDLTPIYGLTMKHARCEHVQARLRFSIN
Procedure, shortened: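 Human CYP1A2 activity measured with a P450-Glo proluciferin substrate; compounds in DMSO preincubated 10 min at room temperature with enzyme-substrate mix, then NADPH regeneration system added for 1 h. Luciferin detection reagent, 20 min, luminescence read.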

[6] = molecular target: Cytochrome P450 3A4 (Homo sapiens) (UniProt P08684); experiment: Cytochrome P450 Family 3 Subfamily A Member 4 (CYP3A4) small molecule antagonists: luciferase reporter qHTS assay (AID 1671201); details: P450-Glo CYP3A4 enzyme, luciferin luminescence, 1 h; series mostly up to 115 µM
Sequence of UniProt P08684 (P08684 whole entry, looked up): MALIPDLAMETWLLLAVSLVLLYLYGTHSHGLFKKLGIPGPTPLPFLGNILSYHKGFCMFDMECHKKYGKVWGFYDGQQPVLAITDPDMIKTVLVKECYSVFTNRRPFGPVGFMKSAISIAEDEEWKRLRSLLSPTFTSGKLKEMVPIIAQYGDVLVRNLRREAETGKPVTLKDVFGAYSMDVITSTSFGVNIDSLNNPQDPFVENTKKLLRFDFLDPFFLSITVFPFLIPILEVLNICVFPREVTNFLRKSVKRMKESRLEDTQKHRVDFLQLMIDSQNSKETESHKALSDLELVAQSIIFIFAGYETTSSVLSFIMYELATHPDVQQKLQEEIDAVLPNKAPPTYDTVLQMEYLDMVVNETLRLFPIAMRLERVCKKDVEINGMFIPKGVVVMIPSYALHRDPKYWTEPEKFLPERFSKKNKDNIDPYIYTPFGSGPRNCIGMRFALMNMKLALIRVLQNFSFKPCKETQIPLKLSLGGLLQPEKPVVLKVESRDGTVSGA
Procedure, shortened: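 qHTS, 1536-well. CYP3A4 + proluciferin substrate, cpd 10 min RT → NADPH regen 1 h RT → detection reagent 20 min → luminescence (RLU). Ketoconazole positive control.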

[7] = molecular target: Cytochrome P450 2D6 (Homo sapiens) (UniProt P10635); experiment: Cytochrome P450 Family 2 Subfamily D Member 6 (CYP2D6) small molecule antagonists: luciferase reporter qHTS assay (AID 1671196); details: P450-Glo CYP2D6 enzyme assay, luciferin luminescence, 1 h; series mostly up to 115 µM; also: nearly all actives have a fitted effect of over 50% in size; also: potency is read from the fitted curve at half-maximal effect
Sequence of UniProt P10635 (P10635 whole entry, looked up): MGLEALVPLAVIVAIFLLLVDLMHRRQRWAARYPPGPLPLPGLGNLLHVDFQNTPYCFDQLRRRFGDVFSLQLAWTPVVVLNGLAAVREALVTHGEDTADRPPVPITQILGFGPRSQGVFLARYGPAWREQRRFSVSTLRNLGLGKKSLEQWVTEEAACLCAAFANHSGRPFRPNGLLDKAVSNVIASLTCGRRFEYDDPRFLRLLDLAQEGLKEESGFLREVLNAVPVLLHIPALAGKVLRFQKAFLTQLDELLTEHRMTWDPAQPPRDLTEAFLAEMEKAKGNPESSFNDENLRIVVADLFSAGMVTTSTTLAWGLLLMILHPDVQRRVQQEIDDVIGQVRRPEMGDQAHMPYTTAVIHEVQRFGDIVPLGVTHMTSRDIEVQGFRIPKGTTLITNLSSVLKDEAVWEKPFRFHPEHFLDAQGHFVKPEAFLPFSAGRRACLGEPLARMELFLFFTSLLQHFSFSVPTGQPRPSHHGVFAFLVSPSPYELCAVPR
Procedure, shortened: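 CYP2D6 enzyme–substrate mix was held with compound for 10 min at room temperature, then NADPH regeneration solution was added and the reaction ran 1 h at room temperature. Luciferin product was detected by luminescence after 20 min with detection reagent.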

[8] = molecular target: Nuclear receptor subfamily 1 group I member 2 (Homo sapiens) (UniProt O75469); experiment: Human pregnane X receptor (PXR) small molecule agonists, qHTS assay (AID 1346982); details: PXR-Luc HepG2, CYP3A4 luciferase reporter, 24 h; series mostly up to 92.4 µM; also: potency is read from the fitted curve at half-maximal effect; nearly all actives have a fitted effect of over 35% in size
Sequence of UniProt O75469 (O75469 whole entry, looked up): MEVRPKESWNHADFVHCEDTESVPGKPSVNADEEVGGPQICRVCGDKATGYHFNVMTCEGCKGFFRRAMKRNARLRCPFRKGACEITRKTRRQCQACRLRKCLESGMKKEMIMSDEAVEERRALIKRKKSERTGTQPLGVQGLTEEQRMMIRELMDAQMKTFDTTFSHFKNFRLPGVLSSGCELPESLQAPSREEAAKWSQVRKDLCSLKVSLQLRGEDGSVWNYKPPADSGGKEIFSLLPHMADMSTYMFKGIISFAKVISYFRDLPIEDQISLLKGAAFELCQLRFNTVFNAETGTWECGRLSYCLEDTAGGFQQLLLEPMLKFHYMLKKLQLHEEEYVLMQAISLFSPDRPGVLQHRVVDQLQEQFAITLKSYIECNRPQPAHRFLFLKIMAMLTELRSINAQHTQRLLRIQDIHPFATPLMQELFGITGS
Procedure, shortened: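 PXR-Luc HepG2 cells (CYP3A4 promoter-driven luciferase) were seeded in medium with 5% charcoal-stripped FBS, left 5 hr at 37 C, then exposed to compounds in DMSO for 24 hr. Luminescence was read after ONE-Glo addition.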

[9] = molecular target: Nuclear receptor subfamily 1 group I member 2 (Rattus norvegicus) (UniProt Q9R1A7); experiment: Rat pregnane X receptor (rPXR) activation by small molecules, qHTS assay (AID 1346983); details: rPXR luciferase reporter cells, One-Glo luminescence, 24 h; max activation: stronger effect = higher value; also: % is scaled to controls: 0 for no effect and ±100 for the full control effect; nearly all actives have a fitted effect of over 20% in size
Sequence of UniProt Q9R1A7 (Q9R1A7 whole entry, looked up): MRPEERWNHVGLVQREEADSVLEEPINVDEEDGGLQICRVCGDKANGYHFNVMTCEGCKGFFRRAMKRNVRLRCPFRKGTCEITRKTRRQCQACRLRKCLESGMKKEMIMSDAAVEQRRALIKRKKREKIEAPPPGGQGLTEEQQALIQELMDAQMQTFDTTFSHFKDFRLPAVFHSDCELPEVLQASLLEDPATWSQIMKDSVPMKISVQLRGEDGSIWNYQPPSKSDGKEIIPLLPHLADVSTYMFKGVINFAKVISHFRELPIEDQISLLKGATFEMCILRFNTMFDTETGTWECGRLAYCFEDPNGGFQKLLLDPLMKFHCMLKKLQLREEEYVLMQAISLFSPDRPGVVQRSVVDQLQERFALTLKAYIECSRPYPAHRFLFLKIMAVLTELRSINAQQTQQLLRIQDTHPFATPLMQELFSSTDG
Procedure, shortened: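 Cell-based rPXR luciferase reporter assay, 2,000 cells per well, rested 5hr at 37 C before compound addition in DMSO, then 24 hr at 37 C. One-Glo reagent was added and luminescence read after 30 min at room temperature.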
Tags tell the direction and shape of the fitted curve.

CC(=O)N[C@@H](CS)C(=O)O
Potency [1]: inactive
Potency [2]: active: 56.3 µM and inactive
Potency [3]: inactive

CCN(CC)CCOc1ccccc1C(=O)CCc1ccccc1
Potency [1]: inconclusive: 29.8 µM [cytotoxic, partial curve]
Potency [2]: inactive
Potency [4]: active: 3.38 µM

Clc1ccnc(Cl)n1
Potency [1]: inactive
Potency [2]: inactive

Nc1ccc(N=Nc2ccccc2)c(N)c1
Potency [1]: active: 33.6 µM
Potency [5]: active: 7.8 µM
Potency [6]: active: 11 µM

CC(=O)[C@H]1CC[C@H]2[C@@H]3CCC4=CC(=O)CC[C@]4(C)[C@H]3CC[C@]12C
Potency [1]: inconclusive: 34.2 µM [cytotoxic, partial curve]
Potency [3]: active: 22.3 µM and active: 25.2 µM
Potency [5]: inconclusive: 35.4 µM [inhibitor, partial curve]

OC[C@H]1O[C@@H](n2cnc3c(=S)nc[nH]c32)[C@H](O)[C@@H]1O
Potency [1]: inconclusive: 4.73 µM [cytotoxic, full curve]
Potency [7]: inconclusive: 0.776 µM [inhibitor, single point]
Potency [2]: active: 7.76 µM
Potency [5]: inconclusive: 40.7 µM [inhibitor, single point]

CCN(CC)CCOc1ccc(Cc2ccccc2)cc1
Potency [1]: inconclusive: 18.8 µM [cytotoxic, partial curve, poor fit]
Potency [8]: active: 23.7 µM
Potency [3]: inactive
Potency [5]: inactive
Potency [4]: active: 7.56 µM

Clc1sc(Cl)c(Cl)c1Cl
Potency [1]: inactive
Potency [7]: inactive

CCOc1cc(OCC)c(C(=O)CCC(=O)O)cc1OCC
Potency [1]: inconclusive: 29.8 µM [rising, partial curve, poor fit]
Potency [5]: inactive

CCOC(=O)c1ccccc1C(=C1C=C(Br)C(=O)C(Br)=C1)c1cc(Br)c(O)c(Br)c1
Potency [1]: inconclusive: 57.5 µM [cytotoxic, single point]
Potency [7]: inactive
Potency [5]: inconclusive: 26.6 µM [inhibitor, partial curve]
Potency [6]: inconclusive: 66.8 µM [inhibitor, single point]

Nc1ccc([N+](=O)[O-])cc1O
Potency [1]: active: 30.6 µM
Potency [7]: inconclusive: 35.6 µM [inhibitor, partial curve]
Potency [6]: inconclusive: 63.3 µM [inhibitor]

O=c1[nH]sc2cc(Cl)ccc12
Potency [1]: inconclusive: 33.5 µM [cytotoxic]
Potency [3]: active: 13.8 µM

CC(C)N=C(N)/N=C(\N)Nc1ccc(Cl)cc1
Potency [1]: inconclusive: 33.5 µM [cytotoxic, partial curve, poor fit]
max activation [9]: inactive: -16.8%
Potency [3]: inconclusive: 34.7 µM [inhibitor, partial curve]
Potency [5]: inconclusive: 36.3 µM [inhibitor, single point]
Potency [4]: inconclusive: 19 µM [inhibitor, partial curve]

C[C@@H](O[C@H]1OCCN(Cc2n[nH]c(=O)[nH]2)[C@H]1c1ccc(F)cc1)c1cc(C(F)(F)F)cc(C(F)(F)F)c1
Potency [1]: inconclusive: 33.5 µM [cytotoxic, single point]
Potency [7]: active: 19.5 µM

[Cl][In]([Cl])[Cl]
Potency [1]: inconclusive: 0.0015 µM [rising, full curve, poor fit]
Potency [3]: inconclusive: 44.8 µM [inhibitor, partial curve]

N[C@@H](C(=O)N[C@@H]1C(=O)N2C(C(=O)O)=C(Cl)CS[C@H]12)c1ccccc1
activity change, negative = cytotoxicity [1]: inactive: 4.82% [at 8.39 µM]
activity change, negative = inhibition [2]: inactive: 33.2% [at 10.5 µM]
activity change, negative = inhibition [5]: inactive: 7.47% [at 10.5 µM]

O=C(Nc1cccc([N+](=O)[O-])c1)c1cc2ccccc2cc1O
Potency [1]: active: 3.86 µM
Potency [3]: active: 17.8 µM
Potency [5]: active: 3.56 µM
Potency [6]: inconclusive: 12.6 µM [inhibitor, full curve]

CCc1nc(N)nc(N)c1-c1ccc(Cl)cc1
Potency [1]: inconclusive: 61.1 µM [cytotoxic, partial curve] and inconclusive: 26.6 µM [cytotoxic, partial curve]
Potency [8]: inconclusive: 68.6 µM [activator, single point] and inconclusive: 33.5 µM [activator, single point]
Potency [3]: inactive
Potency [5]: inconclusive: 36.1 µM [inhibitor, partial curve]
Potency [4]: inconclusive: 39.5 µM [inhibitor, partial curve] and inconclusive: 43.6 µM [inhibitor, partial curve]

O=C1OC2(c3cc(Br)c(O)c(Br)c3Oc3c2cc(Br)c(O)c3Br)c2c(Cl)c(Cl)c(Cl)c(Cl)c21
Potency [1]: active: 2.51 µM and active: 11.7 µM
Potency [7]: inconclusive: 2.25 µM [inhibitor, full curve, poor fit]
Potency [2]: inconclusive: 25.2 µM [inhibitor, full curve, poor fit]
Potency [3]: active: 10 µM and active: 17.2 µM
Potency [5]: inconclusive: 21.6 µM [inhibitor, partial curve]
